Hit rate of the full screen: of about 150,000 compounds, about 540 (0.36%) showed an effect of 50% or more. The list shows a part of the results.
test system: Plasmodium falciparum; experiment: Primary screen in NF54 nanoGlo assay, in single point, at 2uM, 72h; a lower Z score goes with more inhibition; assay type: functional, Erythrocyte; settings: timepoint 72 hour

Row | SMILES | % Inhibition [%] | Z score
1 | CC1C(C)S(=O)(=O)CCN1C(=O)c1ccc(Cl)cc1 (stereo not drawn) | 2 | -0.26
2 | CCCc1cnc(C)nc1N1CCC2(CC1)C[C@@H](C(=O)O)N(C(C)=O)C2 | 16 | -2.01
3 | CCN1CC2(CCN(Cc3cc(F)ccc3C(F)(F)F)CC2)OC1=O | -26 | 2.37
4 | COc1ccc(-c2nc(N3CCC(C)CC3)nc3nn(C)c(N)c23)cc1OC | -1 | 0.08
5 | O=C(COc1ccccc1)N1CCC2(CCC(=O)N(C[C@H]3CCCO3)C2)CC1 | -5 | 0.84
6 | N#Cc1ccc(NCC2(CO)CCC2)cc1 | -9 | 1.21
7 | Fc1ccccc1[C@@H](F)C1CCN(c2cc(N3CCOCC3)ncn2)CC1 | -10 | 1.04
8 | CCc1nc(C(C)C)nc(N2CCN(C(=O)c3ccc(F)cc3)CC2)c1Cc1cccc(C(F)(F)F)c1 | 1 | -0.1
9 | CCC(CC)CN(CC)C(=O)c1nccnc1C(=O)OC(C)(C)C | -1 | 0.17
10 | Cc1ccc(-c2ccc(=O)[nH]n2)cc1NC(=O)c1cn(CC[C@H]2CCCCN2)nn1 | -6 | 1
11 | O=S(=O)(CCCOc1ccccc1)N1CC(n2ccnn2)C1 | -13 | 1.44
12 | O=C1C2C(c3cccnc3)NC(c3cccnc3)C1C(c1cccnc1)NC2c1cccnc1 (stereo not drawn) | -9 | 1.69
13 | CC[C@H]1OCC[C@@H]1NS(=O)(=O)c1sccc1Cl | 3 | -0.69
14 | COc1cc(F)ccc1-c1ccnc2nc(-c3ccco3)nn12 | -11 | 1.34
15 | CC(C)[C@H]1CN(C2CCCC2)C[C@@H]1NC(=O)c1ccnn1C | -5 | 0.49
16 | CN1CCC(N(Cc2ccncc2)C(=O)Nc2ccc3c(c2)OCO3)CC1 | -16 | 3.11
17 | CCOc1cc([C@@H]2c3nc[nH]c3CCN2Cc2[nH]cnc2C)ccc1O | -5 | 0.83
18 | Cc1ccc(-n2cc(-c3noc(-c4ccc[nH]4)n3)nn2)cc1 | -6 | 1.16
19 | COc1ccc(OC)c(NC(=O)N(C)[C@H]2COC[C@@H]2O)c1 | -9 | 1.72
20 | O=C(Nc1ccsc1)c1cc(N2CCNC2=O)ccc1F | -5 | 0.64
21 | Cc1ccc(Cn2c(=O)c(C(=O)NCc3cccnc3)nn(-c3ccccc3F)c2=O)cc1 | -3 | 0.48

Row | SMILES | % Inhibition [%] | Z score
22 | COc1cc(CN2CC[C@H](c3ccccn3)C2)ccc1O | -9 | 0.88
23 | CN(Cc1cscn1)c1ncccc1C(=O)Nc1ccc(Br)cc1 | -7 | 0.61
24 | N#C[C@@H](NC(=O)CCc1ccc(Cl)s1)c1ccsc1 | -1 | 0.08
25 | COCc1nsc(N2CCC(CN3CCCCC3=O)CC2)n1 | -14 | 1.62
26 | CCCN(CCC)c1ccc(NS(=O)(=O)c2ccc(Cl)s2)cc1C(=O)O | -2 | 0.18
27 | Cc1ocnc1CNc1cncc(-n2ccnc2C)n1 | 32 | -3.65
28 | COC[C@@H]1C[C@@H](OC)CN1C(=O)NCc1ccnc(C)c1 | -3 | 0.47
29 | COc1ccc(-c2cc3c(=O)n(CCNC(=O)Cc4ccc(F)cc4)ccn3n2)cc1 | -7 | 1.17
30 | COc1ccc(CNC(=O)Cn2ncc3c(N4CCOCC4)ncnc32)c(OC)c1 | -13 | 1.42
31 | CC(C)CS(=O)(=O)NCc1nncn1CCc1ccccc1 | -8 | 1.24
32 | O=C(O)C1(C[C@H]2CCCCO2)CCN(c2ncnc3ccsc23)CC1 | -1 | 0.18
33 | CC(=O)Nc1nc2ccc(NC(=O)c3cc(C4CC4)on3)cc2s1 | 5 | -0.71
34 | O=C(NCc1nc(-c2ccncc2)no1)NC1CCCCC1 | -10 | 1.56
35 | COc1ccc(C(=O)N(CCN2CCOCC2)CC(=O)N2CCN(c3ccc(-c4cccc(OC)c4)nn3)CC2)cc1 | -12 | 1.82
36 | N#Cc1cnn(-c2ccc(NC(=O)c3cc4c(s3)CCCCCC4)cc2)c1N | -7 | 0.93
37 | CC(=O)Nc1ccc(S(=O)(=O)N2CCC[C@H]2c2cccs2)cc1 | -3 | 0.6
38 | COc1ccc(C2(C(=O)N(C)c3nc(C)cs3)CC3(CCC3)C2)cc1 | 4 | -0.86
39 | Cc1nc(-c2ccccc2CO)c2c(C)noc2n1 | -8 | 1.36
40 | Cc1cncc(C)c1NC(=O)[C@H](C)c1cccs1 | 19 | -2.35
41 | COc1cc(C)c(-c2ccc(C(=O)N3CCCCCC3)cc2)cn1 | -10 | 1.56
42 | CCOc1ncc(C(=O)N2CCC3(C2)OCCO3)cc1Cl | -6 | 0.56

Row | SMILES | % Inhibition [%] | Z score
43 | CCCc1nc(-c2c(C)cc(C)nc2NC(=O)C2CCCCC2)no1 | -1 | 0.07
44 | COc1cc(C)nc(CN2CCOc3ccc(OC)cc32)c1 | 0 | 0.09
45 | O=C1N[C@H]2CCC[C@@H]1CN(C(=O)Nc1cccc(-c3cscn3)c1)C2 | -3 | 0.68
46 | Cc1ccccc1CCC(=O)N1CCC(N2C(=O)CNC2=O)CC1 | -15 | 2.83
47 | O=C(Cc1ccsc1)N1CCCC[C@H](c2ccccc2)C1 | 7 | -0.99
48 | Cn1cnc(C(=O)N2CCC(COc3cc(C4CC4)ncn3)CC2)c1 | -10 | 1.15
49 | Cc1nn(CCC(=O)N2CC(=O)N(c3ccccc3C#N)C[C@@H]2C)c(C)c1C | 8 | -1.49
50 | CCOc1ccc(CCN2CN(Cc3ccccc3)c3nc4ccccc4n3C2)cc1OCC | -3 | 0.51
51 | CC1CCN(C(=O)c2ccc(NCCc3ccccn3)nc2)CC1 | -10 | 1.39
52 | Cc1ccccc1CN1CCCN(C(=O)C2=NN(C)C(=O)CC2)CC1 | 1 | -0.06
53 | O=C(NCCS(=O)(=O)c1ccccc1F)Nc1ccccc1 | -11 | 1.17
54 | Cc1cnc(NC(=O)CC2CCCC(C)C2)[nH]1 (stereo not drawn) | -8 | 0.92
55 | CC(C)CN1C[C@H](c2noc(-c3cn(C)cn3)n2)C2(CCOCC2)C1 | 4 | -0.54
56 | COc1ccc(-c2cn(-c3ccc(C)cc3)c(NC(=O)CN(Cc3ccccc3)C(=O)C(C)C)n2)cc1 | 10 | -1.21
57 | O=C(CCNc1c(-c2cccc(F)c2)nc2cnccn12)Nc1ccccc1 | -11 | 1.72
58 | O[C@H]1C[C@@H]2CN(Cc3ccccc3OC(F)(F)F)C[C@@H]2C[C@@H]1O | -6 | 0.58
59 | C[C@H](Nn1cnnc1)c1cc(Cl)ccc1O | -11 | 1.69
60 | Cc1noc(C2CCN(C(=O)[C@H]3CCS(=O)(=O)C3)CC2)n1 | -10 | 1.24
61 | Cc1ccc(CC(=O)N[C@H]2CS(=O)(=O)C2(C)C)cc1Cl | -4 | 0.82
62 | CCN(C(=O)CCc1ccco1)c1ccc(NC(=O)CCc2ccco2)c(C(F)(F)F)c1 | -5 | 0.8
63 | Cc1cc(C)n(S(=O)(=O)c2cccc3nsnc23)n1 | -6 | 0.82

Row | SMILES | % Inhibition [%] | Z score
64 | Cc1ccc2c(c1)nnn2CNc1ccc2ncccc2c1 | -8 | 1.23
65 | COc1nc(NCC2(CC(C)C)CCC2)ncc1F | -9 | 1.41
66 | COc1cc([C@H](C(=O)Nc2c(C)cccc2C)N(Cc2ccco2)C(=O)c2ccc(-n3cnnn3)cc2)ccc1O | 10 | -1.36
67 | CN(Cc1ccco1)C(=O)c1cn2c(n1)CCCC2 | -5 | 0.79
68 | CCc1cc(C(=O)NC[C@@H]2COc3ccccc3C2)[nH]n1 | -7 | 1.36
69 | O=C(C1CCN(Cn2nc3ccccn3c2=O)CC1)N1CCCC1 | -10 | 1.91
70 | O=C(c1cscn1)N1CC2(C[C@H](N3CCOCC3)CO2)C1 | -14 | 2.23
71 | Cc1n[nH]c(C)c1NC(=O)CN1CCN(c2ccccc2)[C@@H](C)C1 | 12 | -1.6
72 | Cc1cc(F)ccc1NC(=O)c1cc2c(=O)n(CC(C)C)ccc2n1C | -16 | 1.56
73 | COCc1nc([C@H]2CCOC(C)(C)C2)n(-c2ccc(F)c(F)c2)n1 | -1 | 0.21
74 | Cc1cc(CN(C)C(=O)c2cc(C(C)C)oc2C)no1 | 1 | -0.11
75 | CC[C@H](C)N(Cc1csc(COc2ccccc2C)n1)C(=O)c1cccc(Br)c1 | 6 | -0.52
76 | CCc1nc2ccccc2c(N2CCC3OCC(=O)NC3C2)c1C (stereo not drawn) | -11 | 1.03
77 | COc1ccc(Cl)cc1NS(=O)(=O)c1cc(-c2noc(C(=O)N3CCOCC3)n2)cs1 | -6 | 0.63
78 | CCc1cccc2c([C@H](CC(=O)NCCOC)CC(C)C)c[nH]c12 | -1 | 0.11
79 | Nc1ccc(Oc2ccc(-c3cc(F)cc4cccnc34)cc2)nc1 | -6 | 1.07
80 | CC1CCCCC1NC(=O)C1CCC(CNS(=O)(=O)c2ccc3c(c2)C(C)(C)C(=O)N3C)CC1 (stereo not drawn) | -17 | 1.65
81 | O=C(C1CCS(=O)(=O)CC1)N(CC#Cc1ccccc1)C1CCCC1 | -16 | 1.57
82 | C[C@@H]1Oc2ccc(NC(=O)COc3ccc(F)cc3)cc2NC1=O | -2 | 0.37
83 | Cc1nocc1NC(=O)N[C@@H]1c2ccccc2CC[C@@H]1O | -2 | 0.39
84 | Cc1ocnc1CNC(=O)C1CCCCCC1 | -21 | 2.96
